Laboratory results reported in PMC10611751.
These are yes or no findings as the source states them, for the method shown. Some results given as binding are weak or reduced against the parent protein; the word gives no strength.

The chains behind the UniProt entries cited, without tags or fusion partners. Where a name states a change or a piece, a line headed by the entry shows the natural chain unless it says otherwise. A line that says so, or that is headed by a name, gives the form on record, which may keep a tag or linker. Residues count along the entry.
Ankyrin-G 24 ANK repeats (residues 38-855) (O70511, residues 38-855): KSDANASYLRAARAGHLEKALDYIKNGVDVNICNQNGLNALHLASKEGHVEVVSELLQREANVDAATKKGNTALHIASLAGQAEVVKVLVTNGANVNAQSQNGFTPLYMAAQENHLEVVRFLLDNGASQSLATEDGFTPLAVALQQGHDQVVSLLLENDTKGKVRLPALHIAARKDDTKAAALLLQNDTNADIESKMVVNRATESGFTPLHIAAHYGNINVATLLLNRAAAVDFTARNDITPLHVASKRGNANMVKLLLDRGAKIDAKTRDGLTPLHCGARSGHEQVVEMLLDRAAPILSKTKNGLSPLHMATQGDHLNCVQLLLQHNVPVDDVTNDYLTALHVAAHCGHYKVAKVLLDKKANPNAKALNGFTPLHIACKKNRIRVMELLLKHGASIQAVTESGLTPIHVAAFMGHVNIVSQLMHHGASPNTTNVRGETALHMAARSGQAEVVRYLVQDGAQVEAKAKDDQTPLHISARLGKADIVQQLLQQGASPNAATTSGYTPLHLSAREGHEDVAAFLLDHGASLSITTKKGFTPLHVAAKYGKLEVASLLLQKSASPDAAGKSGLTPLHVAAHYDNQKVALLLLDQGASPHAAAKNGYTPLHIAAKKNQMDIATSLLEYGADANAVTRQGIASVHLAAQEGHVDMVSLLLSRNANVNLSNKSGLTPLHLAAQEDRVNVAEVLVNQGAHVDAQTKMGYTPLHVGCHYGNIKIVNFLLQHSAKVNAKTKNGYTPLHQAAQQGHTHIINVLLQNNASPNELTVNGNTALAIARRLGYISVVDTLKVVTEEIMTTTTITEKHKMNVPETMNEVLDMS
Ankyrin-G ANK repeats 8-14 (O70511, residues 275-500): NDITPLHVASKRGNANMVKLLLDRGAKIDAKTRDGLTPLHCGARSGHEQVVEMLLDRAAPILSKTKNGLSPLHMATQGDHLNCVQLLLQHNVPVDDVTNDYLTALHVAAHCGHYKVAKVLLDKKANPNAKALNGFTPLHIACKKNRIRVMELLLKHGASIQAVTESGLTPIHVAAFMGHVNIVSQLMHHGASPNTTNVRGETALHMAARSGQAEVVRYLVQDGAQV
UniProt Q02248: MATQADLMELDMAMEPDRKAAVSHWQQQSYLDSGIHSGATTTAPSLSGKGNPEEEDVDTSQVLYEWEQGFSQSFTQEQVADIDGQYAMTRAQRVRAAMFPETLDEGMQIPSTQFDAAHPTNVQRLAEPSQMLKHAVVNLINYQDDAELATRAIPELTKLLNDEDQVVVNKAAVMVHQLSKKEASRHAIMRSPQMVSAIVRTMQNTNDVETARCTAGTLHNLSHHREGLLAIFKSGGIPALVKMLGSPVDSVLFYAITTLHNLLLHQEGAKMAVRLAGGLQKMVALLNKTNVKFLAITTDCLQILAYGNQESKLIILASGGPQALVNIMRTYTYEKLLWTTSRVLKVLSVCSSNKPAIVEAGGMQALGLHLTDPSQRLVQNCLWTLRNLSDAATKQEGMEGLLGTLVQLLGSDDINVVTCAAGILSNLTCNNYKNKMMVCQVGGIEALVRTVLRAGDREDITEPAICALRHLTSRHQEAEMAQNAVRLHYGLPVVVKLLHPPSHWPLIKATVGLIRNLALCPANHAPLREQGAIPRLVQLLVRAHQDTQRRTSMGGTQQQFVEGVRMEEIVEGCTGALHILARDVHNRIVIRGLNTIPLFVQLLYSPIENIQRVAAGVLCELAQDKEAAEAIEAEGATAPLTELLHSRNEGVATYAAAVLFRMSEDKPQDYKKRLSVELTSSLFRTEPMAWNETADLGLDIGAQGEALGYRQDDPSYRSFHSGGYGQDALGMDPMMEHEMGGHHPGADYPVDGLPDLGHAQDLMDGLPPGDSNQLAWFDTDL
UniProt P30999, residues 324-938: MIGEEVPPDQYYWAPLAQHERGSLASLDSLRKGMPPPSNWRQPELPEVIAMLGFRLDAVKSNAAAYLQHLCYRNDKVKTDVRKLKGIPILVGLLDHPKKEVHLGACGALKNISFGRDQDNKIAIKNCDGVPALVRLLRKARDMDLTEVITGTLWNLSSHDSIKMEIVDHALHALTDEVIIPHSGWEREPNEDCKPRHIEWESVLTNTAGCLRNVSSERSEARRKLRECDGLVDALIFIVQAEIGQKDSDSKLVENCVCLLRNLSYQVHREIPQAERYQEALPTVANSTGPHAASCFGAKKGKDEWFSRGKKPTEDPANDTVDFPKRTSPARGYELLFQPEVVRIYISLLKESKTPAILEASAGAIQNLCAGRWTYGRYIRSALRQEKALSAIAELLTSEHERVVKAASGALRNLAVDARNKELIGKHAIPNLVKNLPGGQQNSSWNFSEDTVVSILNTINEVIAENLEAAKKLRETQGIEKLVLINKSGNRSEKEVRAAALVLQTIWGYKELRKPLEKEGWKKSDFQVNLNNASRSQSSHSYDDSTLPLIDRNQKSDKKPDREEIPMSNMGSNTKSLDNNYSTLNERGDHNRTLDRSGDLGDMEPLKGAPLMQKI
E-cadherin C-terminal domain (residues 734-884) (P09803, residues 734-884): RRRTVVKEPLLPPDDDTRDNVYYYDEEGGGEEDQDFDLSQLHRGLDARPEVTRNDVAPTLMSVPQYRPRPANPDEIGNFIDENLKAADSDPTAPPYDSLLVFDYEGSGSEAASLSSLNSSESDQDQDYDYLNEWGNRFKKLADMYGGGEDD
E-cadherin 734-775 (P09803, residues 734-775): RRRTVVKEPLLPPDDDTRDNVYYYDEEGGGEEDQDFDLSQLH
E-cadherin 751-775 (site-1) (P09803, residues 751-775): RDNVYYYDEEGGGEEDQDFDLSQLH
E-cadherin 776-884 (P09803, residues 776-884): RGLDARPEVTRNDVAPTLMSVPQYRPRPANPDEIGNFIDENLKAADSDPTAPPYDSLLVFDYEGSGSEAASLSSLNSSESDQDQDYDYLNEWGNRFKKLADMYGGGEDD
E-cadherin 828-869 (containing both site-2 and site-3) (P09803, residues 828-869): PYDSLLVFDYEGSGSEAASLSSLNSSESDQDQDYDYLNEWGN
E-cadherin CTD site-1 to A (P09803, form named): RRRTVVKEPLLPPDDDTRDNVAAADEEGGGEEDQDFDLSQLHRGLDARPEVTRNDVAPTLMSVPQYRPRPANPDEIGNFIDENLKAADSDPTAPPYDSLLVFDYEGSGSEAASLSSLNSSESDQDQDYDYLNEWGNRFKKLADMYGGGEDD
E-cadherin CTD site-1, 3 to A (P09803, form named): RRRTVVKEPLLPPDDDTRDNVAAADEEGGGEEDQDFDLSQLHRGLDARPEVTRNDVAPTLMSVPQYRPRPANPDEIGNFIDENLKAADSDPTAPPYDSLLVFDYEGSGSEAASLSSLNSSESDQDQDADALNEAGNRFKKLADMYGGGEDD
E-cadherin CTD site-1, 2 to A (P09803, form named): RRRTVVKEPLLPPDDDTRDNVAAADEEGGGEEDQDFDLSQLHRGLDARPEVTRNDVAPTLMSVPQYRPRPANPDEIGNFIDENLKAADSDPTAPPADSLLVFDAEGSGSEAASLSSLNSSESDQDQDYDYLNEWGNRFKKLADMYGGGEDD
E-cadherin CTD site-1, 2, 3 to A (a total of 8 aromatic residue substitutions) (P09803, form named): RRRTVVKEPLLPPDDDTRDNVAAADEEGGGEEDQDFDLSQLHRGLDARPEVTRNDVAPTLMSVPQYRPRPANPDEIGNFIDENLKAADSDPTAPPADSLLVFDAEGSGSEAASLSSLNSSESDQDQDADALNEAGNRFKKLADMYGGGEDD
E-cadherin CTD site-2, 3 to A (P09803, form named): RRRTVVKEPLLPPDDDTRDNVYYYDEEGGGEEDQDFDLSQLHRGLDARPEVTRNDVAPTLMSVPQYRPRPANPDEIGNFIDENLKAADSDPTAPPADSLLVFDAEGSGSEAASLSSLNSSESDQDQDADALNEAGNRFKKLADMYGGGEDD
E-cadherin CTD site-2 to A (P09803, form named): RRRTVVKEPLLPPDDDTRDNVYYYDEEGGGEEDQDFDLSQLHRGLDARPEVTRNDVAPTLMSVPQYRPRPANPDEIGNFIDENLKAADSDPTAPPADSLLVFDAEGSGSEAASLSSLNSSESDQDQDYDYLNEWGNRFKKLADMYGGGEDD
E-cadherin CTD site-3 to A (P09803, form named): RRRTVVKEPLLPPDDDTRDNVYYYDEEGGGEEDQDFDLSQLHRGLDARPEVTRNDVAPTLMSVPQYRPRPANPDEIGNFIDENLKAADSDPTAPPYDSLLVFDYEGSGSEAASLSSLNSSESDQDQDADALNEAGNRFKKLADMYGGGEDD

Experiments:
[1] = molecular target: Ankyrin-G 24 ANK repeats (residues 38-855) (UniProt O70511); assay: ITC; E-cadherin proteins in the syringe (e.g. 200 μM Trx-E-cadherin) titrated into AnkG in the cell (e.g. 20 μM Trx-AnkG R1-24); 25 °C; 50 mM Tris, 100 mM NaCl, 1 mM EDTA, 1 mM DTT, pH 7.8; one-site binding model; both purified
[2] = molecular target: Ankyrin-G 24 ANK repeats (residues 38-855) (UniProt O70511); assay: SEC; analytical gel filtration chromatography (FPLC) of E-cadherin CTD, AnkG R1-24 and their 1:1 mixture; both purified
[3] = molecular target: full-length β-catenin 1-781 (mouse) (UniProt Q02248); assay: ITC; E-cadherin CTD WT and variants with β-catenin 1-781 or p120 catenin 324-938; 25 °C; 50 mM Tris, 100 mM NaCl, 1 mM EDTA, 1 mM DTT, pH 7.8; one-site binding model; which protein was in the syringe is not stated; both purified
[4] = molecular target: p120 catenin 324-938 (mouse) (UniProt P30999); assay: as above
[5] = molecular target: Ankyrin-G ANK repeats 8-14 (UniProt O70511); assay: ITC; E-cadherin proteins in the syringe (e.g. 200 μM Trx-E-cadherin) titrated into AnkG in the cell (e.g. 20 μM Trx-AnkG R1-24); 25 °C; 50 mM Tris, 100 mM NaCl, 1 mM EDTA, 1 mM DTT, pH 7.8; one-site binding model; both purified
[6] = molecular target: full-length β-catenin 1-781 (mouse) (UniProt Q02248); assay: ITC; a complex of two proteins formed beforehand titrated to the third protein; 25 °C; 50 mM Tris, 100 mM NaCl, 1 mM EDTA, 1 mM DTT, pH 7.8; both purified
[7] = molecular target: Ankyrin-G 24 ANK repeats (residues 38-855) (UniProt O70511); assay: as above

Substance	binding [1]	other results
E-cadherin CTD site-1 to A (from UniProt P09803 734-884) (domain or fragment)	binds	
E-cadherin CTD site-1, 3 to A (from UniProt P09803 734-884) (domain or fragment)	binds	
E-cadherin C-terminal domain (residues 734-884) (from UniProt P09803 734-884) (domain or fragment)		binding [2]: binds; binding [3]: binds; binding [4]: binds
E-cadherin CTD site-1, 2 to A (from UniProt P09803 734-884) (domain or fragment)	binds	
E-cadherin 828-869 (containing both site-2 and site-3) (from UniProt P09803 828-869) (domain or fragment)		binding [5]: binds
E-cadherin 776-884 (from UniProt P09803 776-884) (domain or fragment)	binds	
E-cadherin CTD site-1, 2, 3 to A (a total of 8 aromatic residue substitutions) (from UniProt P09803 734-884) (domain or fragment)	no binding	
E-cadherin CTD site-2, 3 to A (from UniProt P09803 734-884) (domain or fragment)	binds	
E-cadherin CTD–AnkG R1-24 complex (from UniProt P09803 734-884; O70511 38-855)		binding [6]: binds
E-cadherin 751-775 (site-1) (from UniProt P09803 751-775) (domain or fragment)		binding [5]: binds
E-cadherin 734-775 (from UniProt P09803 734-775) (domain or fragment)	binds	
E-cadherin CTD site-2 to A (from UniProt P09803 734-884) (domain or fragment)	binds	
E-cadherin CTD site-3 to A (from UniProt P09803 734-884) (domain or fragment)	binds	
E-cadherin CTD–β-catenin complex (from UniProt P09803 734-884; Q02248 1-781)		binding [7]: binds
E-cadherin 776-884–AnkG R1-24 complex (from UniProt P09803 776-884; O70511 38-855)		binding [6]: binds
